Data reported in PubChem BioAssay AID1030 (National Center for Advancing Translational Sciences (NCATS), 2008).
Hit rate of the full screen: of about 220,000 compounds, about 16,000 (7.3%) were called active. The inconclusive results got no clear call from the source; some entries with a clear call stand among them for comparison. Calls follow the shape of the dose curve; as a rule, active = well fitted inhibition curve with a large enough effect (not every such curve was filed as active); inconclusive = small, poorly fitted or top-dose-only effect, or another doubt; inactive = no such curve, though single readings can be large or run the other way. No potency is given beside an inconclusive call; the fits are too rough.

Target: Aldehyde dehydrogenase 1A1 (Homo sapiens) (UniProt P00352)
UniProt P00352, sequence (P00352 whole entry, looked up): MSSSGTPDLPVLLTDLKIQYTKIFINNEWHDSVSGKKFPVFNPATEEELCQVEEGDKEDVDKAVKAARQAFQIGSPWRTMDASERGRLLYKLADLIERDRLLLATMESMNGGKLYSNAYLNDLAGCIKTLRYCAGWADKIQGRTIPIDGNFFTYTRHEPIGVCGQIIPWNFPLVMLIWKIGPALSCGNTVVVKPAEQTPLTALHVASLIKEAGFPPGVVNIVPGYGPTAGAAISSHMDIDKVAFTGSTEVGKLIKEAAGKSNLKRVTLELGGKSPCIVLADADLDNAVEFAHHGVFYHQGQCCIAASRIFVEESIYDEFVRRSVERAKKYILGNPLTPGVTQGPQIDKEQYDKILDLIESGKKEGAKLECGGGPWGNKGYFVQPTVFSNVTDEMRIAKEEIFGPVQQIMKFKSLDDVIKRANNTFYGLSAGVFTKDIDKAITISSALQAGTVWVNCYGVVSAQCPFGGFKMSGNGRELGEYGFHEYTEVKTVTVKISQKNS
Assay: qHTS Assay for Inhibitors of Aldehyde Dehydrogenase 1 (ALDH1A1);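 as to activity, negative = inhibition: plate controls were no enzyme wells and a reference inhibitor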
Conditions: Purified ALDH1A1, NADH fluorescence, propionaldehyde substrate; series mostly up to 75.3 µM; activity, negative = inhibition: at the top concentration
Potency is read from the fitted curve at half-maximal effect; tags tell the direction and shape of the fitted curve.

SMILES	Potency	activity, negative = inhibition
COc1ccccc1C(=O)Nc1nc2ccc(S(C)(=O)=O)cc2s1	inconclusive [inhibitor, partial curve]	
CCn1cnc2sc(C(=O)N3CCN(Cc4ccc5c(c4)OCO5)CC3)c(C)c2c1=O	inconclusive [inhibitor, single point]	
Cc1ccc(C(=O)c2c(NC(=O)c3ccccc3)sc(C)c2C)cc1	active: 25.1 µM	
Cc1cc(SCC(=O)OCC(=O)c2c(N)n(C)c(=O)n(C)c2=O)c(C)cc1Br		inactive: -10.1%
O=C(O)CNC(=O)c1nc(-c2ccccc2)n(-c2ccccc2)n1	inconclusive [inhibitor, single point]	
O=C(c1ccccc1)N1CCCCC(S(=O)(=O)c2ccc3ccccc3c2)C1=O (stereo not given)	active: 10 µM	
Cc1ccc(-n2nnnc2SCC(=O)NC2CCCc3ccccc32)cc1 (stereo not given)	active: 7.94 µM	
O=c1[nH][nH]c2c(N=Cc3ccccc3O)ccc(F)c12	active: 8.91 µM	
CCN(CC)CCCNc1nc(C)cc(COC)c1C#N	inconclusive [inhibitor, partial curve]	
Cc1cc(S(=O)(=O)NCCc2ccccc2)c(C)s1	inconclusive [inhibitor, single point]	
COc1oc(-c2ccccc2)nc1C(F)(F)F		inactive: 4.16%
Cc1nn(Cc2ccccc2Cl)c(C)c1NC(=O)c1ccn(C)n1		inactive: -1.97%
O=C(Nc1ccc(Cl)cc1)ON=C1CCCC1	inconclusive [inhibitor, single point]	
COc1ccccc1-c1cc(C(F)(F)F)nc(S(=O)(=O)CCCC(=O)NCc2ccc(F)cc2)n1	inconclusive [inhibitor, single point]	
Cc1cccc(N2CCN(Cc3nc(-c4cccc(Oc5ccccc5)c4)oc3C)CC2)n1		inactive: -3.54%
CNC(=S)N/N=C/c1c(C)nn(-c2cccc(Cl)c2)c1Cl		inactive: -3.57%
CCOC(=O)C[N+]1(C)CCN(C(C)=O)CC1		inactive: 5.92%
CCOC(=O)c1ccc(N2CCN(c3ccccc3F)CC2)c(NC(=O)Nc2cccc(OC)c2)c1	inconclusive [inhibitor, single point]	
COc1ccc(-c2cc3nc(C)c(CCC(=O)NCc4ccc(F)cc4)c(C)n3n2)c(OC)c1	inconclusive [inhibitor, single point]	
S=C(Nc1ccc(Br)cc1Cl)Nn1cnnc1	active: 7.94 µM	
CC(=O)NC1C(=O)N=C(SCC(=O)Nc2cccc(Cl)c2)NC1=O (stereo not given)	active: 28.2 µM	
O=C(CN1C(=O)c2cccc3cccc(c23)C1=O)N1CCCCCC1	inconclusive [inhibitor, partial curve]	
CC(NC(=O)c1ccc(-c2cc(C(F)(F)F)ccc2Cl)o1)c1ccccc1 (stereo not given)		inactive: 10.4%
N#Cc1cc2c(nc1SCc1ccc(Cl)cc1)CCCC2	inconclusive [inhibitor, single point]	
Cc1nn(C(C)C(=O)NC2C(=O)N3C(C(=O)O)=C(CSc4nnnn4C)CSC23)cc1Cl (stereo not given)	inconclusive [inhibitor, partial curve]	

SMILES	Potency	activity, negative = inhibition
C#CCNC(=O)c1ccc(OCc2ccccc2)cc1Cl		inactive: -0.896%
CCn1cc(C(=O)NC2CCCCC2C)c(=O)c2ccc(C)nc21 (stereo not given)	inconclusive [inhibitor, single point]	
S=C(Nc1ccc(Oc2ccccc2)cc1)NC1CCCCCC1	inconclusive [inhibitor, partial curve]	
CC(=O)Oc1ccc2c(=O)c(-c3nc4ccccc4s3)coc2c1		inactive: -10.3%
O=C(C[n+]1ccc(/C=N/O)cc1)NC1CCCCC1		inactive: 10.3%
C/C(=N\OC(=O)c1ccccc1F)c1nccs1		inactive: -4.18%
O=C(Cn1cc(SCc2ccc(Cl)cc2)c2ccccc21)N1CCOCC1	inconclusive [inhibitor, single point]	
COc1ccccc1OCC(=O)Nc1cc(S(=O)(=O)N2CCCCC2)ccc1N1CCCCC1	inconclusive [inhibitor, single point]	
COc1ccccc1Nc1nc(Cl)c(C=O)s1	active: 17.8 µM	
O=[N+]([O-])c1ccc(/C=N/N/C(=N/c2ccccn2)c2ccccn2)cc1	inconclusive [inhibitor, single point]	
COc1c2c(cc3occ(-c4ccc5c(c4)OCO5)c(=O)c13)OC(C)(C)C=C2	active: 14.1 µM	
COC(=O)N/N=C/c1cc(C)n(-c2ccc(Br)cc2)c1C	inconclusive [inhibitor, single point]	
CCN1C(=O)c2cccc3c(S(=O)(=O)NCCc4c[nH]c5ccccc45)ccc1c23	active: 14.1 µM	
Cn1c(=O)c2c(SCc3c(F)cccc3Cl)nc(CC(C)(C)C)nc2n(C)c1=O		inactive: -3.36%
Clc1ccc(OCc2nn3c(C4CCCCC4)nnc3s2)c(Cl)c1	inconclusive [inhibitor, partial curve]	
O=C(C1CCN(S(=O)(=O)N2CCC3(CC2)OCCO3)CC1)N1CCOCC1		inactive: 4.01%
CC(=O)N1C(=O)/C(=C2\SC(=S)N(NS(=O)(=O)c3ccc(C)cc3)C2=O)c2ccccc21	active: 12.6 µM	
COC(=O)C1=C(C(=O)OC)[C@@H]2Nc3ccccc3[C@@]23C[C@@H](C(=O)OC)N(C(=O)c2cccs2)C3=N1		inactive: 17.4% [at 13.5 µM]
O=C(Cn1nc(C(F)F)cc1C(F)F)NNC(=S)Nc1ccc(Cl)cc1	inconclusive [inhibitor, partial curve]	
O=C(COc1ccc(Cl)cc1Cl)NC(=S)Nc1ccccc1C(=O)O	inconclusive [inhibitor, single point]	
CCOC(=O)c1nn(-c2ccccc2)c(-c2ccccc2)c1C(=O)c1ccccc1	inconclusive [inhibitor, single point]	
Cc1ccc(/C(O)=C2\C(=O)C(=O)N(CC(C)O)C2c2ccccn2)cc1 (stereo not given)	inconclusive [inhibitor, partial curve, poor fit]	
COc1ccccc1-c1nnc(Sc2nc([N+](=O)[O-])nn2C)o1		inactive: 3.71%
COc1cc(/C=N/NC(=S)NC(C)C)ccc1OCC(=O)Nc1c(C)cc(C)cc1C	inconclusive [inhibitor, partial curve]	
Cc1cc(-c2ccccc2)nc2cc(C(N)=O)nn12	inconclusive [inhibitor, single point]	

SMILES	Potency	activity, negative = inhibition
COc1ccccc1N=c1oc2cc(O)ccc2cc1C(N)=O	inconclusive [inhibitor, partial curve]	
COc1ccc(OCCC(=O)OCC(=O)NC2CCCCCCC2)cc1	active: 15.8 µM	
CCOc1ccc(NC(=O)c2ccc(NC(=O)c3cn4c5c(c(N6CCN(C)CC6)c(F)cc5c3=O)OCC4C)cc2)cc1 (stereo not given)	inconclusive [inhibitor, single point]	
CC(CCc1ccccc1)NC(=S)NC1CCCCC1 (stereo not given)	inconclusive [inhibitor, single point]	
CC(C)CCOc1ccc(C(CC(N)=O)C(=O)O)cc1 (stereo not given)		inactive: 5.77%
COc1ccc(CNc2ccc(C)cc2)cc1Br		inactive: -0.74%
CC(C)(C)c1cc(/C=C(\C#N)C(N)=S)cc(C(C)(C)C)c1O	active: 2.82 µM	
COc1ccc(Nc2ncccc2C(=O)O)cc1	inconclusive [inhibitor, partial curve, poor fit]	
CCCCSc1nc2c(cc1C#N)CCC2	inconclusive [inhibitor, single point]	
N#Cc1c(NC(=O)CSc2nnnn2C2CCCCC2)sc2c1CCCC2	inconclusive [inhibitor, full curve]	
CCOC(=O)C1CCCCN1Cc1cccc(OC)c1OC (stereo not given)	inconclusive [inhibitor, partial curve]	
O=C(N/N=C/c1ccc(-c2ccccc2[N+](=O)[O-])o1)c1cccnc1	inconclusive [inhibitor, single point]	
Cc1ccc(CSC2=Nc3ccccc3C3=NC(=O)CN23)cc1	inconclusive [inhibitor, single point]	
CN(C)c1ccc(C(C#N)c2ccccc2)nn1 (stereo not given)	active: 10 µM	
CN(C)c1ccc(CN2CCCCC2)cc1		inactive: -9.2%
COCC(=O)n1nc(-c2ccccc2)nc1NCc1ccc(N(C)C)cc1		inactive: -7.19%
CC(C)c1cc(C(=O)NCc2cccnc2)no1		inactive: -0.159%
Cc1cnc(CNc2cc(-c3ccccc3C(F)(F)F)ncn2)cn1		inactive: -2.21%
N#Cc1ccc(NC(=O)CCc2ccc(S(=O)(=O)N3CCOCC3)cc2)cc1	inconclusive [inhibitor, partial curve]	
COc1cc2cc(CN(Cc3cccs3)C(=S)Nc3cccc(C)c3)c(=O)[nH]c2cc1OC	inconclusive [inhibitor, single point]	
CCn1cc(C2C3=C(CC(C)(C)CC3=O)N(c3ccccc3)C3=C2C(=O)CC(C)(C)C3)c(C)n1		inactive: -9.5%
CCOC(=O)N1CCC(NC(=O)c2cccc3c2C(=O)N(Cc2cccnc2)C3)CC1	inconclusive [inhibitor, single point]	
COc1ccc(/C=N/NC(=O)c2nn(-c3ccc(Cl)cc3)c(=O)c3c(N)scc23)cc1	active: 6.31 µM	
O=C(Nc1ccccc1)C1=C[C@@H](C2CC2)C[C@@H](OCc2ccc(CO)cc2)O1	inconclusive [inhibitor, partial curve]	
O=C1c2oc3ccccc3c(=O)c2C(c2cccc(Br)c2)N1Cc1ccco1 (stereo not given)	inconclusive [inhibitor, full curve]	
